Experimental data as given in PubChem BioAssay AID900 (National Center for Advancing Translational Sciences (NCATS), 2007).
About 20 (0.03%) of roughly 75,000 compounds were called active. This list was built around the results that the source calls inconclusive (neither active nor inactive); the mix of calls is not that of the screen. Calls come from the whole dose curve; as a rule, active = well fitted inhibition curve with a large enough effect; inconclusive = small, poorly fitted or top-dose-only effect; inactive = flat fitted curve, though single readings scatter. Potencies beside an inconclusive call are fits to weak or partial responses and may not hold up.

target: Caspase-1 (Homo sapiens) (UniProt P29466); experiment: qHTS Assay for Allosteric/Competitive Inhibitors of Caspase-1; details: Caspase-1 enzyme, Ac-WEHD-AFC fluorogenic rate; activity change, negative = inhibition: at 57.5 µM (top of the series) unless noted;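 for activity change, negative = inhibition: plate controls were vehicle for no effect and no substrate for full effect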
Potency is the fitted concentration of half-maximal effect; tags give direction and shape of the fitted curve or compound fluorescence and quenching.

SMILES	Potency	activity change, negative = inhibition
COCCn1c(=O)c(-c2cc(F)cc(F)c2)nc2cnc(Oc3ccc(OC)cc3)nc21	inconclusive: 25.1 µM [inhibitor, partial curve]	
Cc1nc2c(c(=O)n1Cc1ccco1)c1nc3ccccc3nc1n2Cc1ccccc1	inconclusive: 25.1 µM [inhibitor, partial curve]	
O=C(Nc1ccc2c(c1)OCO2)[C@@H]1[C@@H]2C(=O)N(C3CCCCC3)C(=O)[C@@H]2C2c3ccccc3C=CN21 (stereo partly drawn)	inconclusive: 31.6 µM [inhibitor, single point]	
COc1ccc2[nH]c(=O)c(CN(C3CCCCC3)C(c3nnnn3Cc3ccco3)C(C)C)cc2c1 (stereo not drawn)	inconclusive: 39.8 µM [inhibitor, single point]	
O=C(c1ccccc1)N(Cc1ccccc1)c1ccccn1	inactive	
CC(=O)CCC(=O)NCCc1ccccc1F		inconclusive: -17.1% [inhibitor]
Nc1ncnc2c1ncn2[C@@H]1O[C@@H](C(=O)NC2CC2)[C@H](O)[C@@H]1O	inactive	
COc1ccccc1CN1CCC2(CC1)CCN(C(=O)c1csnn1)CC2	inactive	
CCOC(=O)c1sc2nc(C)cc(C)c2c1N	inconclusive: 39.8 µM [inhibitor, single point]	
O=c1[nH]c2ccc(Br)cc2c(-c2ccccc2)c1N1CCOCC1		inconclusive: -17.1% [inhibitor]
Cc1cc2cc(C(c3nnnn3Cc3ccco3)N3CCc4ccccc4C3)c(=O)[nH]c2cc1C (stereo not drawn)	inconclusive: 39.8 µM [inhibitor, single point]	
O=C(/C=C/Nc1cccc(O)c1)c1ccccc1	inconclusive: 39.8 µM [inhibitor, partial curve]	
COc1ccccc1N1CCN(C(=O)c2sc3nc(-c4ccccc4)cn3c2C)CC1	inconclusive: 25.1 µM [inhibitor, single point]	
Cc1nc2cnc(Nc3ccccc3)nc2n(CCC#N)c1=O	inconclusive: 25.1 µM [inhibitor, single point]	
CCOCCCn1c(C)nc2c(c1=O)c1nc3ccccc3nc1n2CCC1=CCCCC1	inconclusive: 25.1 µM [inhibitor, partial curve]	
CN1CCN(C(=O)c2cc3nc(-c4ccccc4)cc(C(F)(F)F)n3n2)CC1	inactive	
CN(C)c1ccc(/C=C/c2ccncc2)cc1	inconclusive: 25.1 µM [inhibitor, partial curve]	
C1=CC2c3ccccc3NC(c3ccncc3)C2C1 (stereo not drawn)		inconclusive: -15.9% [inhibitor]
Oc1ccc(Br)cc1/C=N/n1cnc2ccccc21	inconclusive: 10 µM [inhibitor, partial curve]	
Cc1ccc(C2CC(=O)N3CN(c4ccc(Br)cc4)CSC3=C2C#N)o1 (stereo not drawn)	inconclusive: 20 µM [inhibitor, partial curve]	
CC(C)N(Cc1ccccc1)S(=O)(=O)c1n[nH]c(C(C)(C)C)n1		inactive: -4.83% [at 11.5 µM]
COc1ccc(-n2nc3cc(C)c(N)c(Br)c3n2)cc1	inconclusive: 31.6 µM [inhibitor, single point]	

SMILES	Potency	activity change, negative = inhibition
COc1ccccc1NC(=O)CSc1ncn[nH]1	inconclusive: 39.8 µM [inhibitor, single point]	
COC(=O)Cc1c(C)c2c(O)cc(C)cc2oc1=O	inconclusive: 25.1 µM [inhibitor, partial curve]	
O=S(=O)(c1ccc(F)cc1)N1CN(Cc2ccco2)c2nc3ccccc3nc21	inconclusive: 31.6 µM [inhibitor, single point]	
N#CC12C(N)=NC3(OCCO3)C1(C#N)C1=C(CCC1)NC2c1ccccc1 (stereo not drawn)	inconclusive: 31.6 µM [fluorescent]	
O=C1c2ccccc2C(=O)N1CCCCN(C(=O)c1ccco1)c1ccc(Cl)cc1	inactive	
CCN1CCN(c2nc3ccccc3nc2C(C#N)C(=O)OCc2ccccc2)CC1 (stereo not drawn)	inconclusive: 15.8 µM [inhibitor, partial curve]	
CCN1C(=O)c2cccc3cccc1c23	inconclusive: 25.1 µM [inhibitor, partial curve]	
O=c1c2cc(N3CCOCC3)ccc2[nH]c(=S)n1CCCN1CCCCC1	inconclusive: 10 µM [inhibitor, partial curve]	
CCCCCNC(=O)C(C#N)c1nc2ccccc2nc1N1CCCC1 (stereo not drawn)	inconclusive: 3.16 µM [inhibitor, partial curve]	
COC(=O)C1=C(N)Oc2cc(C)n(CCc3ccccc3)c(=O)c2C1c1cccnc1 (stereo not drawn)	inconclusive: 25.1 µM [inhibitor, single point]	
O=C(Nc1ccc(N2CCOCC2)cc1)Nc1ccc2nc(-c3ccco3)c(-c3ccco3)nc2c1	inconclusive: 20 µM [inhibitor, single point]	
CCOC(=O)c1cc2c(=O)n3cccc(C)c3nc2n(Cc2ccccc2Cl)c1=N	inconclusive: 3.16 µM [inhibitor, partial curve]	
COCCOC(=O)C1=C(C)OC(N)=C(C#N)C1c1ccc2c(c1)OCO2 (stereo not drawn)	inconclusive: 39.8 µM [inhibitor, single point]	
CN1CCc2nc(SCC(=O)Nc3ccc(F)cc3)c(C#N)cc2C1	inconclusive: 25.1 µM [inhibitor, partial curve]	
Cn1cnc2cc(OC(=O)c3ccccc3)ccc21	inactive	
CC(C)CO/N=C1/C[C@@H](O)[C@@H](O)[C@@H]2[C@@H]3C(=O)N(C4CCCCC4)C(=O)[C@H]3CC[C@@H]12		inconclusive: -16.9% [inhibitor] [at 11.5 µM]
CCN1C(=O)/C(=C2/SC(C)=C(C)N2CC)SC1=S	inconclusive: 12.6 µM [inhibitor, partial curve]	
OCCNc1ncnc2c1ncn2[C@@H]1O[C@@H](CO)[C@H](O)[C@@H]1O		inactive: -0.94% [at 11.5 µM]
COc1ccc(OC(=O)c2ccncc2)cc1	inactive	
CN1CCN(Cc2c(O)ccc3c(=O)c(Oc4ccccc4Cl)c(C(F)(F)F)oc23)CC1	inconclusive: 31.6 µM [inhibitor, partial curve]	
O=C(CCn1c(=O)oc2ccccc21)Nc1ccon1	inconclusive: 39.8 µM [inhibitor, single point]	
